According to the supplement of paper PMC4604168 (melanoma cell lines):
Some of the results follow. Single values are uncertain, as repeats are few or missing.

Key:
Test in all cases: cell count relative to DMSO control; melanoma cells; higher = more viable cells
Conditions in all cases: library dose: standard library concentration; 72 h
[1] = tested on: G361
[2] = tested on: IPC-298
[3] = tested on: IST-MEL1
[4] = tested on: LB2518-MEL
[5] = tested on: LOXIMVI
[6] = tested on: MEL-HO
[7] = tested on: MZ2-MEL
[8] = tested on: MeWo
[9] = tested on: RPMI7951
[10] = tested on: RVH-421
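Note: cells treated in 1,536-well plates, then fixed and DAPI-stained, with nuclei counted from automated high-throughput microscope images.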

SMILES	cell count [1] [%]	cell count [2] [%]	cell count [3] [%]	cell count [4] [%]	cell count [5] [%]	cell count [6] [%]	cell count [7] [%]	cell count [8] [%]	cell count [9] [%]	cell count [10] [%]
CCCS(=O)(=O)Nc1ccc(F)c(C(=O)c2c[nH]c3ncc(Cl)cc23)c1F + C=CCn1c(=O)c2cnc(Nc3ccc(N4CCN(C)CC4)cc3)nc2n1-c1cccc(C(C)(C)O)n1 [MK1775] (first compound 0.4 µM, partner dose 0.1 µM)	48.5	51	73.8	65.4	92.7	73.9	80.5	68.5	56.4	73.1
CN(c1ncccc1CNc1nc(Nc2ccc3c(c2)CC(=O)N3)ncc1C(F)(F)F)S(C)(=O)=O + Nc1ncn([C@H]2C[C@H](O)[C@@H](CO)O2)c(=O)n1 [decitabine] (first compound 0.4 µM, partner dose 0.5 µM)	64.6	65.1	79.8	90.4	101	74	81.5	71.5	57.7	85.3
NC1(c2ccc(-c3nc4ccn5c(=O)[nH]nc5c4cc3-c3ccccc3)cc2)CCC1 + O=C(Nc1cccc(Cl)c1)Nc1ncc(CCNc2ncnc3ccsc23)s1 [SNS314] (first compound 2 µM, partner dose 0.004 µM)	75.3	92.9	61.6	72.8	92.7	65.2	91.8	77.1	51.6	81.9
CCCS(=O)(=O)Nc1ccc(F)c(C(=O)c2c[nH]c3ncc(Cl)cc23)c1F + COc1cc2c(Oc3ccc4[nH]c(C)cc4c3F)ncnc2cc1OCCCN1CCCC1 [cediranib] (first compound 0.4 µM, partner dose 2 µM)	60.1	86.2	73.7		65	81.9		90.5	53.4	85.9
CS(=O)(=O)c1ccc(C(=O)Nc2ccc(Cl)c(-c3ccccn3)c2)c(Cl)c1 [vismodegib] + Oc1nc(-c2ccc(C(F)(F)F)cc2)nc2c1CSCC2 [XAV939] (first compound 5 µM, partner dose 10 µM)	74.7	85	91	88.7	93.3	83.2	87.1	83.8	86	91.7
CCCS(=O)(=O)Nc1ccc(F)c(C(=O)c2c[nH]c3ncc(Cl)cc23)c1F + OCc1c[nH]c2ccccc12 [Indole-3-carbinol] (first compound 0.4 µM, partner dose 4 µM)	68.3	66.6	94.1		75.8	79.9		94.9	148	98.5
CS(=O)(=O)c1ccc(C(=O)Nc2ccc(Cl)c(-c3ccccn3)c2)c(Cl)c1 [vismodegib] + c1cc(-c2cnn3cc(-c4ccc(OCCN5CCCCC5)cc4)cnc23)ccn1 [Dorsomorphin] (first compound 5 µM, partner dose 2 µM)	43	83.9	74.2	82.5	108	81	71.2	63	61.4	132
C=C(c1ccc(C(=O)O)cc1)c1cc2c(cc1C)C(C)(C)CCC2(C)C [Bexarotene] + Nc1ncn([C@H]2C[C@H](O)[C@@H](CO)O2)c(=O)n1 [decitabine] (first compound 10 µM, partner dose 0.5 µM)	63	59.5	74.4		84.8	59.3		64.5	48.9	71.8
CN(c1ncccc1CNc1nc(Nc2ccc3c(c2)CC(=O)N3)ncc1C(F)(F)F)S(C)(=O)=O + CC(=O)c1c(C)c2cnc(Nc3ccc(N4CCNCC4)cn3)nc2n(C2CCCC2)c1=O [palbociclib] (first compound 0.4 µM, partner dose 0.2 µM)	58.7	66.3	70.3		61.5	71.8		51.5	43.2	64.3
CN(c1ncccc1CNc1nc(Nc2ccc3c(c2)CC(=O)N3)ncc1C(F)(F)F)S(C)(=O)=O + COc1cc2c(Oc3ccc4[nH]c(C)cc4c3F)ncnc2cc1OCCCN1CCCC1 [cediranib] (first compound 0.4 µM, partner dose 2 µM)	71.6	103	78.5		49.4	84.4		81.4	53.4	77.1
CCCS(=O)(=O)Nc1ccc(F)c(C(=O)c2c[nH]c3ncc(Cl)cc23)c1F + COc1ccc2c(c1)CCC1C2CCC2(C)C(NCCCCCCN3C(=O)C=CC3=O)CCC12 [U73122] (first compound 0.4 µM, partner dose 2 µM)	94	94.3	95.5	86.6	101	100	84	71.9	88.6	82.4
NC1(c2ccc(-c3nc4ccn5c(=O)[nH]nc5c4cc3-c3ccccc3)cc2)CCC1 + CN(C)S(=O)(=O)c1ccc2c(c1)/C(=C/c1cc3c([nH]1)CCCC3)C(=O)N2 [SU6656] (first compound 2 µM, partner dose 2 µM)	68.6	85.9	66.9	67.2	94.2	64.3	101	76.7	56.7	101
CCCS(=O)(=O)Nc1ccc(F)c(C(=O)c2c[nH]c3ncc(Cl)cc23)c1F + O=C1NC(=O)/C(=C/c2ccc(-c3ccc(F)cc3O)o2)S1 [AS252424] (first compound 0.4 µM, partner dose 5 µM)	45.7	82.3	85.5	83.7	87.6	73.5	65.7	75	104	74.3
C=C(c1ccc(C(=O)O)cc1)c1cc2c(cc1C)C(C)(C)CCC2(C)C [Bexarotene] + O=C(Nc1ccccc1)c1cc([N+](=O)[O-])ccc1Cl [GW9662] (first compound 10 µM, partner dose 10 µM)	70.9	85.6	85.8	85.6	106	85.8	74.9	84.3	69.2	35
NC1(c2ccc(-c3nc4ccn5c(=O)[nH]nc5c4cc3-c3ccccc3)cc2)CCC1 + O=C1NC(=O)/C(=C/c2ccc(-c3ccc(F)cc3O)o2)S1 [AS252424] (first compound 2 µM, partner dose 5 µM)	67.4	88.2	78.9	65.8	87.1	56.9	89.1	65	95.9	71.5
NC1(c2ccc(-c3nc4ccn5c(=O)[nH]nc5c4cc3-c3ccccc3)cc2)CCC1 + CCc1ccc(CCOc2ccc(CC3SC(=O)NC3=O)cc2)nc1 [pioglitazone] (first compound 2 µM, partner dose 10 µM)	72.7	78.8	71.9	73.9	66.1	66.3	101	67.1	67	84.4
CN(c1ncccc1CNc1nc(Nc2ccc3c(c2)CC(=O)N3)ncc1C(F)(F)F)S(C)(=O)=O + Cn1c(=O)n(-c2ccc(C(C)(C)C#N)cc2)c2c3cc(-c4cnc5ccccc5c4)ccc3ncc21 [NVP-BEZ235] (first compound 0.4 µM, partner dose 0.02 µM)	52.5	75.7	81.2	72.7	58.6	68.8	65.1	54.5	34.7	67.2
CCCS(=O)(=O)Nc1ccc(F)c(C(=O)c2c[nH]c3ncc(Cl)cc23)c1F + NC(=O)Nc1cc(-c2cccc(F)c2)sc1C(=O)N[C@H]1CCCNC1 [AZD7762] (first compound 0.4 µM, partner dose 0.1 µM)	71	84.5	73.1		85.5	70.9		66.8	18	83.8
CS(=O)(=O)c1ccc(C(=O)Nc2ccc(Cl)c(-c3ccccn3)c2)c(Cl)c1 [vismodegib] + CNC(=O)c1cc(Oc2ccc(NC(=O)Nc3ccc(Cl)c(C(F)(F)F)c3)cc2)ccn1 [sorafenib] (first compound 5 µM, partner dose 2 µM)	97.7	85.8	108	90.6	114	95.4	120	106	91.6	144
NC1(c2ccc(-c3nc4ccn5c(=O)[nH]nc5c4cc3-c3ccccc3)cc2)CCC1 + CO[C@@H]1[C@H](N(C)C(=O)c2ccccc2)C[C@H]2O[C@]1(C)n1c3ccccc3c3c4c(c5c6ccccc6n2c5c31)C(=O)NC4 [Midostaurin] (first compound 2 µM, partner dose 0.4 µM)	53.2	82.1	69.2		42.4	53.7		65.6	42.9	57.2
C=C(c1ccc(C(=O)O)cc1)c1cc2c(cc1C)C(C)(C)CCC2(C)C [Bexarotene] + CCN(CC)CCCCNc1ncc2cc(-c3cc(OC)cc(OC)c3)c(NC(=O)NC(C)(C)C)nc2n1 [PD173074] (first compound 10 µM, partner dose 0.5 µM)	69.7	82.2	98.7	114	88.4	88	73	94.1	73.1	96.8
C=C(c1ccc(C(=O)O)cc1)c1cc2c(cc1C)C(C)(C)CCC2(C)C [Bexarotene] + C[C@@H]1CCN(C(=O)CC#N)C[C@@H]1N(C)c1ncnc2[nH]ccc12 [CP690550] (first compound 10 µM, partner dose 5 µM)	85.2	89	81.6		83.7	86		81.1	59.8	96.3
C=C(c1ccc(C(=O)O)cc1)c1cc2c(cc1C)C(C)(C)CCC2(C)C [Bexarotene] + OCCn1cc(-c2cnc3nnn(Cc4ccc5ncccc5c4)c3n2)cn1 [PF04217903] (first compound 10 µM, partner dose 5 µM)	66.7	88.8	87.4	63.8	75.5	88.1	84.9	78.3	59.9	102
